Sequences and labels used below:
B1: can I116Q (protein)
chain: MKDIDTLISNNALWSKMLVEEDPGFFEKLAQAQKPRFLWIGCSDSRVPAERLTGLEPGELFVHRNVANLVIHTDLNCLSVVQYAVDVLEVEHIIICGHYGCGGVQAAVENPELGLQNNWLLHIRDIWFKHSSLLGEMPQERRLDTLCELNVMEQVYNLGHSTIMQSAWKRGQKVTIHGWAYGIHDGLLRDLDVTATNRETLEQRYRHGISNLKLKHANHK
B2: can I116P (protein)
chain: MKDIDTLISNNALWSKMLVEEDPGFFEKLAQAQKPRFLWIGCSDSRVPAERLTGLEPGELFVHRNVANLVIHTDLNCLSVVQYAVDVLEVEHIIICGHYGCGGVQAAVENPELGLPNNWLLHIRDIWFKHSSLLGEMPQERRLDTLCELNVMEQVYNLGHSTIMQSAWKRGQKVTIHGWAYGIHDGLLRDLDVTATNRETLEQRYRHGISNLKLKHANHK
B3: trpC L405Q (protein)
chain: MMQTVLAKIVADKAIWVEARKQQQPLASFQNEVQPSTRHFYDALQGARTAFILECKKASPSKGVIRDDFDPARIAAIYKHYASAISVLTDEKYFQGSFNFLPIVSQIAPQPILCKDFIIDPYQIYLARYYQADACLLMLSVLDDDQYRQLAAVAHSLEMGVLTEVSNEEEQERAIALGAKVVGINNRDLRDLSIDLNRTRELAPKLGHNVTVISESGINTYAQVRELSHFANGFLIGSALMAHDDLHAAVRRVLLGENKVCGLTRGQDAKAAYDAGAIYGGLIFVATSPRCVNVEQAQEVMAAAPLQYVGVFRNHDIADVVDKAKVLSLAAVQLHGNEEQLYIDTLREALPAHVAIWKALSVGETLPAREFQHVDKYVLDNGQGGSGQRFDWSLLNGQSLGNVLQAGGLGADNCVEAAQTGCAGLDFNSAVESQPGIKDARLLASVFQTLRAY
B4: trpC L404Q (protein)
chain: MMQTVLAKIVADKAIWVEARKQQQPLASFQNEVQPSTRHFYDALQGARTAFILECKKASPSKGVIRDDFDPARIAAIYKHYASAISVLTDEKYFQGSFNFLPIVSQIAPQPILCKDFIIDPYQIYLARYYQADACLLMLSVLDDDQYRQLAAVAHSLEMGVLTEVSNEEEQERAIALGAKVVGINNRDLRDLSIDLNRTRELAPKLGHNVTVISESGINTYAQVRELSHFANGFLIGSALMAHDDLHAAVRRVLLGENKVCGLTRGQDAKAAYDAGAIYGGLIFVATSPRCVNVEQAQEVMAAAPLQYVGVFRNHDIADVVDKAKVLSLAAVQLHGNEEQLYIDTLREALPAHVAIWKALSVGETLPAREFQHVDKYVLDNGQGGSGQRFDWSLLNGQSLGNVQLAGGLGADNCVEAAQTGCAGLDFNSAVESQPGIKDARLLASVFQTLRAY
B5: trpC L404A (protein)
chain: MMQTVLAKIVADKAIWVEARKQQQPLASFQNEVQPSTRHFYDALQGARTAFILECKKASPSKGVIRDDFDPARIAAIYKHYASAISVLTDEKYFQGSFNFLPIVSQIAPQPILCKDFIIDPYQIYLARYYQADACLLMLSVLDDDQYRQLAAVAHSLEMGVLTEVSNEEEQERAIALGAKVVGINNRDLRDLSIDLNRTRELAPKLGHNVTVISESGINTYAQVRELSHFANGFLIGSALMAHDDLHAAVRRVLLGENKVCGLTRGQDAKAAYDAGAIYGGLIFVATSPRCVNVEQAQEVMAAAPLQYVGVFRNHDIADVVDKAKVLSLAAVQLHGNEEQLYIDTLREALPAHVAIWKALSVGETLPAREFQHVDKYVLDNGQGGSGQRFDWSLLNGQSLGNVALAGGLGADNCVEAAQTGCAGLDFNSAVESQPGIKDARLLASVFQTLRAY
B6: trpC L405P (protein)
chain: MMQTVLAKIVADKAIWVEARKQQQPLASFQNEVQPSTRHFYDALQGARTAFILECKKASPSKGVIRDDFDPARIAAIYKHYASAISVLTDEKYFQGSFNFLPIVSQIAPQPILCKDFIIDPYQIYLARYYQADACLLMLSVLDDDQYRQLAAVAHSLEMGVLTEVSNEEEQERAIALGAKVVGINNRDLRDLSIDLNRTRELAPKLGHNVTVISESGINTYAQVRELSHFANGFLIGSALMAHDDLHAAVRRVLLGENKVCGLTRGQDAKAAYDAGAIYGGLIFVATSPRCVNVEQAQEVMAAAPLQYVGVFRNHDIADVVDKAKVLSLAAVQLHGNEEQLYIDTLREALPAHVAIWKALSVGETLPAREFQHVDKYVLDNGQGGSGQRFDWSLLNGQSLGNVLPAGGLGADNCVEAAQTGCAGLDFNSAVESQPGIKDARLLASVFQTLRAY
B7: trpC I236Q (protein)
chain: MMQTVLAKIVADKAIWVEARKQQQPLASFQNEVQPSTRHFYDALQGARTAFILECKKASPSKGVIRDDFDPARIAAIYKHYASAISVLTDEKYFQGSFNFLPIVSQIAPQPILCKDFIIDPYQIYLARYYQADACLLMLSVLDDDQYRQLAAVAHSLEMGVLTEVSNEEEQERAIALGAKVVGINNRDLRDLSIDLNRTRELAPKLGHNVTVISESGINTYAQVRELSHFANGFLQGSALMAHDDLHAAVRRVLLGENKVCGLTRGQDAKAAYDAGAIYGGLIFVATSPRCVNVEQAQEVMAAAPLQYVGVFRNHDIADVVDKAKVLSLAAVQLHGNEEQLYIDTLREALPAHVAIWKALSVGETLPAREFQHVDKYVLDNGQGGSGQRFDWSLLNGQSLGNVLLAGGLGADNCVEAAQTGCAGLDFNSAVESQPGIKDARLLASVFQTLRAY
B8: trpC I236A (protein)
chain: MMQTVLAKIVADKAIWVEARKQQQPLASFQNEVQPSTRHFYDALQGARTAFILECKKASPSKGVIRDDFDPARIAAIYKHYASAISVLTDEKYFQGSFNFLPIVSQIAPQPILCKDFIIDPYQIYLARYYQADACLLMLSVLDDDQYRQLAAVAHSLEMGVLTEVSNEEEQERAIALGAKVVGINNRDLRDLSIDLNRTRELAPKLGHNVTVISESGINTYAQVRELSHFANGFLAGSALMAHDDLHAAVRRVLLGENKVCGLTRGQDAKAAYDAGAIYGGLIFVATSPRCVNVEQAQEVMAAAPLQYVGVFRNHDIADVVDKAKVLSLAAVQLHGNEEQLYIDTLREALPAHVAIWKALSVGETLPAREFQHVDKYVLDNGQGGSGQRFDWSLLNGQSLGNVLLAGGLGADNCVEAAQTGCAGLDFNSAVESQPGIKDARLLASVFQTLRAY
B9: trpC I236P (protein)
chain: MMQTVLAKIVADKAIWVEARKQQQPLASFQNEVQPSTRHFYDALQGARTAFILECKKASPSKGVIRDDFDPARIAAIYKHYASAISVLTDEKYFQGSFNFLPIVSQIAPQPILCKDFIIDPYQIYLARYYQADACLLMLSVLDDDQYRQLAAVAHSLEMGVLTEVSNEEEQERAIALGAKVVGINNRDLRDLSIDLNRTRELAPKLGHNVTVISESGINTYAQVRELSHFANGFLPGSALMAHDDLHAAVRRVLLGENKVCGLTRGQDAKAAYDAGAIYGGLIFVATSPRCVNVEQAQEVMAAAPLQYVGVFRNHDIADVVDKAKVLSLAAVQLHGNEEQLYIDTLREALPAHVAIWKALSVGETLPAREFQHVDKYVLDNGQGGSGQRFDWSLLNGQSLGNVLLAGGLGADNCVEAAQTGCAGLDFNSAVESQPGIKDARLLASVFQTLRAY
B10: trpC L137P (protein)
chain: MMQTVLAKIVADKAIWVEARKQQQPLASFQNEVQPSTRHFYDALQGARTAFILECKKASPSKGVIRDDFDPARIAAIYKHYASAISVLTDEKYFQGSFNFLPIVSQIAPQPILCKDFIIDPYQIYLARYYQADACLPMLSVLDDDQYRQLAAVAHSLEMGVLTEVSNEEEQERAIALGAKVVGINNRDLRDLSIDLNRTRELAPKLGHNVTVISESGINTYAQVRELSHFANGFLIGSALMAHDDLHAAVRRVLLGENKVCGLTRGQDAKAAYDAGAIYGGLIFVATSPRCVNVEQAQEVMAAAPLQYVGVFRNHDIADVVDKAKVLSLAAVQLHGNEEQLYIDTLREALPAHVAIWKALSVGETLPAREFQHVDKYVLDNGQGGSGQRFDWSLLNGQSLGNVLLAGGLGADNCVEAAQTGCAGLDFNSAVESQPGIKDARLLASVFQTLRAY
B11: trpC L404W (protein)
chain: MMQTVLAKIVADKAIWVEARKQQQPLASFQNEVQPSTRHFYDALQGARTAFILECKKASPSKGVIRDDFDPARIAAIYKHYASAISVLTDEKYFQGSFNFLPIVSQIAPQPILCKDFIIDPYQIYLARYYQADACLLMLSVLDDDQYRQLAAVAHSLEMGVLTEVSNEEEQERAIALGAKVVGINNRDLRDLSIDLNRTRELAPKLGHNVTVISESGINTYAQVRELSHFANGFLIGSALMAHDDLHAAVRRVLLGENKVCGLTRGQDAKAAYDAGAIYGGLIFVATSPRCVNVEQAQEVMAAAPLQYVGVFRNHDIADVVDKAKVLSLAAVQLHGNEEQLYIDTLREALPAHVAIWKALSVGETLPAREFQHVDKYVLDNGQGGSGQRFDWSLLNGQSLGNVWLAGGLGADNCVEAAQTGCAGLDFNSAVESQPGIKDARLLASVFQTLRAY
B12: trpC L404D (protein)
chain: MMQTVLAKIVADKAIWVEARKQQQPLASFQNEVQPSTRHFYDALQGARTAFILECKKASPSKGVIRDDFDPARIAAIYKHYASAISVLTDEKYFQGSFNFLPIVSQIAPQPILCKDFIIDPYQIYLARYYQADACLLMLSVLDDDQYRQLAAVAHSLEMGVLTEVSNEEEQERAIALGAKVVGINNRDLRDLSIDLNRTRELAPKLGHNVTVISESGINTYAQVRELSHFANGFLIGSALMAHDDLHAAVRRVLLGENKVCGLTRGQDAKAAYDAGAIYGGLIFVATSPRCVNVEQAQEVMAAAPLQYVGVFRNHDIADVVDKAKVLSLAAVQLHGNEEQLYIDTLREALPAHVAIWKALSVGETLPAREFQHVDKYVLDNGQGGSGQRFDWSLLNGQSLGNVDLAGGLGADNCVEAAQTGCAGLDFNSAVESQPGIKDARLLASVFQTLRAY

± gives the standard deviation of the averaged measurements. Laboratory Escherichia coli strains with one amino-acid change in an essential protein, pooled on minimal glucose agar with carbenicillin or gentamicin at twice the control MIC (plus kanamycin and chloramphenicol for the plasmids), 48 h. Fold change of barcode share against drug-free plates; higher = less susceptible. Active = above 20 in both replicates (the paper's putatively resistant). '<' = one read or none on drug, '>' = one read or none on a drug-free plate. Shares are relative, so most strains fall below 1 when a few take over. Listed are strains with at least 15 reads on both drug-free plates, and hits; most hits rest on fewer reference reads. Replicate rank correlation about 0.5. Edits are read from barcodes.

In the first data set the target is Escherichia coli (laboratory strain). The experiment in a line: barcode share on antibiotic plates over drug-free plates; higher = less susceptible. As to conditions: antibiotic: carbenicillin; 2× MIC (3.1 µg/mL). The method, then:
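A pool of E. coli strains, each edited to carry one amino-acid change in an essential protein, was grown for 48 h on minimal glucose agar with or without antibiotic; strain barcodes were sequenced; mean of two replicates.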
Turning to B1, the “fold change of barcode share” value is 0.742 ± 0.33. Same read-out and setting: with B2 the figure was 0.68 ± 0.6; with B3, 0.705 ± 0.42. Consider B4, for which the “fold change of barcode share” value was found to be 0.98 ± 0.17. Take B5: the “fold change of barcode share” value worked out at 0.666 ± 0.18. Turning to B6, the “fold change of barcode share” value was found to be 1.11 ± 0.13. B7: the “fold change of barcode share” value turned out to be 0.69 ± 0.2.

Consider B8, for which the “fold change of barcode share” value was 0.669 ± 0.19. In the case of B9, the “fold change of barcode share” value was > 23.8 [active]. Regarding B10, the “fold change of barcode share” value is > 22.1 [active]. On to B11, for which the “fold change of barcode share” value turned out to be 0.581 ± 0.04. B12: the “fold change of barcode share” value was determined as 0.857 ± 0.34.

The data set is the same for the next values; noted with them: antibiotic: gentamicin; 2× MIC (MIC 0.45 µg/mL).
For the protein B1, the “fold change of barcode share” value was found to be 0.0142 ± 0.0087. Same read-out and setting: with B2 the figure was under 0.00708; with B3, 0.0113 ± 0.0062; with B4, 0.0129 ± 0.013. Take B5: the “fold change of barcode share” value worked out at 0.0237 ± 0.021. On the same count and under the same terms, with B6 the figure was under 0.00775; with B11, 0.00993 ± 0.0031; with B12, 0.0271 ± 0.024.

Source of the values: the supplement of paper PMC11876631.
